Measurements taken from paper PMC4336329 (PLoS ONE, 2015).
In all, about 310,000 compounds went through this assay and about 2,200 (0.71%) showed an effect of 50% or more. Effects have a minus sign here. The list shows a part of the results.

Molecular target: human ether-à-go-go-related gene (hERG) potassium channel (human, UniProt Q12809)
Assay: primary screen, population patch clamp on CHO cells stably expressing hERG

Chain of human ether-à-go-go-related gene (hERG) potassium channel (Q12809 whole entry, looked up): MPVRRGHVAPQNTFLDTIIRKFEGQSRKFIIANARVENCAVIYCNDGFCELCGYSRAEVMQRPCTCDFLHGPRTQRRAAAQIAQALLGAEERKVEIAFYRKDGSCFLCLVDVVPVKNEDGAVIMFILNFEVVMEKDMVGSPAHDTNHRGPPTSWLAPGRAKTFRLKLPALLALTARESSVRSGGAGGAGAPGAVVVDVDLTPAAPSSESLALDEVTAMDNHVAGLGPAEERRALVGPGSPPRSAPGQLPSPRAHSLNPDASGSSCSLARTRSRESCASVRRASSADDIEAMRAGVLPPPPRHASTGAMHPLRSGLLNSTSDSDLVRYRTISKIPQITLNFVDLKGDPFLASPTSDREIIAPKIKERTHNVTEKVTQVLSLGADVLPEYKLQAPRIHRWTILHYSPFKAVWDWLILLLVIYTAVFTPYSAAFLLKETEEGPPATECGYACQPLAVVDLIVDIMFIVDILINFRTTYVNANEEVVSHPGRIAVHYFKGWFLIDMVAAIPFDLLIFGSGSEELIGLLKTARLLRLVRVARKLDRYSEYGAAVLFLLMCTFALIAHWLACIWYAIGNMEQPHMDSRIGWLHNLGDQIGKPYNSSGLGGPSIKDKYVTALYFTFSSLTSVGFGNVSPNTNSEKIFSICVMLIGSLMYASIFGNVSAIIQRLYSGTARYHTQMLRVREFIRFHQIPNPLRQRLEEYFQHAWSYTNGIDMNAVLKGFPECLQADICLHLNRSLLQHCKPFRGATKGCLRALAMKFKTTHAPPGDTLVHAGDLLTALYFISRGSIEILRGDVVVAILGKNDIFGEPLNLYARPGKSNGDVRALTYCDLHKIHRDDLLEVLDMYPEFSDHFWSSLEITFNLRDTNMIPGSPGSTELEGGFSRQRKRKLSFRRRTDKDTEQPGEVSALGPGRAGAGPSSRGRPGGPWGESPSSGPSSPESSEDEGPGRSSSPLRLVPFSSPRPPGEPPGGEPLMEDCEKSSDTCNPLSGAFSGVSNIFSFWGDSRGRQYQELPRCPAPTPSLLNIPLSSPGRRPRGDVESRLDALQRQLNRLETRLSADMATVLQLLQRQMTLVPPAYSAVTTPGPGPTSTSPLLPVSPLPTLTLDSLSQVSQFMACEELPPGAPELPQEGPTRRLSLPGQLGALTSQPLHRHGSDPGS

SMILES	hERG current change (%, negative = inhibition) at 1uM
Cc1ccc(C(=O)N2CCN(c3cc(=O)[nH]nc3-c3ccccc3)CC2)cc1	-4.07%
Cc1ccccc1-c1nc(CN2CCCC(C(=O)NCc3cccnc3)C2)c(C)o1 (stereo not shown)	-40.6%
CCc1nnc(NC(=O)CN2CCN(C3CCCCC3)CC2)s1.O=C(O)C(=O)O	6.78%
COc1cccc(-c2cc(C(F)(F)F)nc(-n3cc(Cl)cn3)n2)c1	-4.34%
OCCc1ccc(O)c(-n2nc3ccccc3n2)c1	0.961%
CCCCN(C(=O)c1cc(Cl)nc2ccccc12)c1c(N)n(CCCC)c(=O)[nH]c1=O	9.59%
Cc1noc(NS(=O)(=O)c2ccc(NC(=O)c3ccc(OC(C)C)cc3)cc2)c1C	14.8%
CCOC(=O)c1c(-c2ccc(OC)cc2)csc1NC(=O)CSc1nnc(C)c(=O)[nH]1	6.11%
COCCOCCOCCC(=O)NC1CC2CCC1(C)C2(C)C (stereo not shown)	-1.82%
CCN1CCN(C(=O)C2CCC(=O)N(Cc3cccc(C(F)(F)F)c3)C2)CC1 (stereo not shown)	14.2%
O=c1[nH]nc(N2CCOCC2)c(=O)[nH]1	11%
Cc1cc(C)cc(OCC(=O)Nc2ccc3c(c2)OCCO3)c1	15.5%
Cc1ccc(S(=O)(=O)Nc2ccc(O)c(S(=O)(=O)c3ccc(C)cc3)c2)cc1	9.58%
COc1cccc(NS(=O)(=O)c2ccc(-n3cccn3)cc2)c1	7.23%
COc1ccccc1C(=O)NCCC(=O)N1CCCCCCC1	13.3%
COc1ccc(-c2nc(-c3cccc(C)c3)no2)cc1OC	13.8%
CC1(C)Cc2sc3c(=O)[nH]c(=S)[nH]c3c2CO1	12.7%
CN1CCN(C2Cc3cc(Cl)ccc3Sc3cc(F)ccc32)CC1.CS(=O)(=O)O (stereo not shown)	9.51%
COC(=O)c1ccc(C)c(NS(=O)(=O)c2ccc(C)c([N+](=O)[O-])c2)c1	3.14%
COc1ccc(CCNC(=O)C(=O)Nc2ccc3c(c2)OCO3)cc1OC	5.95%
COc1ccc(-c2cc(C)no2)cc1S(=O)(=O)N1CCN(c2cccc(C)c2)C(C)C1 (stereo not shown)	17.2%
O=C(NCCc1cn2ccccc2n1)c1cc(COc2c(F)cccc2F)on1	-35%

SMILES	hERG current change (%, negative = inhibition) at 1uM
O=C(COc1ccc(Br)cc1Cl)NC1CCCCC1	16.5%
C=CCn1cc(C=C2C(=O)N(C)C(=O)N(C)C2=O)c2ccccc21	19.1%
CCc1cc2c(=O)c(-c3ccc4c(c3)OCCO4)coc2cc1OC(=O)c1ccco1	-0.0889%
c1ccc(Cn2c(CNc3nc4ccccc4n3CCN3CCOCC3)nc3ccccc32)cc1	-54.4%
N#CCSc1nnc2sc3ccccc3n12	12.4%
CCCS(=O)(=O)c1c(S(=O)(=O)CCC)c2cnccn2c1C(=O)c1ccc(OC)cc1	19.9%
Oc1ccccc1CNc1nccs1	23.6%
Cc1ccc(-n2c(SCC(=O)Nc3cc(S(=O)(=O)N4CCOCC4)ccc3Cl)nc3ccccc3c2=O)cc1	1.4%
O=C(CCCc1ccccc1)N1CCN(c2ccc([N+](=O)[O-])cc2)CC1	-48.2%
Cc1cc(C)nc(N/N=C/C(Cl)=C/c2ccccc2)n1	0.291%
Cl.O=C(/C=C/c1ccco1)OCC1CCCN2CCCCC12 (stereo not shown)	7.41%
CC(=O)c1cccc(NC(=O)CC2SC(N3CCCCC3)=NC2=O)c1 (stereo not shown)	4.42%
CC(=O)N1CCN(S(=O)(=O)c2ccc(S(=O)(=O)NCC(C)C)cc2)CC1.O=C(O)C(=O)O	4.85%
Cl.Oc1ccc(Cl)cc1CNCc1ccc(F)cc1	1.14%
CCn1cc(C(=O)N2CCN(c3ccc(OC)cc3)CC2)c(=O)c2cc(S(=O)(=O)N3CCOCC3)ccc21	14.3%
C=CCSC1=C(C#N)C(c2ccccc2)CC(=O)N1 (stereo not shown)	-0.625%
CCn1c(O)c(C=NCc2ccccc2)c(=O)[nH]c1=S	8.76%
COc1nc(N2CCOCC2)nc(-n2cccc2)n1	7.96%
CCCCOc1ccc(C(=O)N2CCNC(=O)C2CC(=O)OC(C)C)cc1 (stereo not shown)	18.1%
COC(=O)CSc1cccc2c1C(=O)CC2c1ccccc1 (stereo not shown)	1.5%
O=C(N/N=C/c1[nH]c2ccccc2c1Cl)c1cccc(Br)c1	14.9%
